# The other results are listed elsewhere or left out. Single values of this set are uncertain. Values with irradiation are relative to irradiated vehicle.
# System: A549-Dual
# Experiment: ISRE reporter (Lucia luciferase) activity, viability-corrected, relative to vehicle (fold change vs vehicle); higher = more activation of STING-IRF / NF-kB immune response reporter
# Conditions: 1 µM; irradiation: 8 Gy/4 fr
row,SMILES,ISRE reporter
1,COC(=O)CC(O)(CCCC(C)(C)O)C(=O)OC1C(OC)=CC23CCCN2CCc2cc4c(cc2C13)OCO4 (centres undefined) [Homoharringtonine],0.0352
2,CC(C(=O)[O-])c1ccc(CC2CCCC2=O)cc1.[Na+] (centres undefined) [Loxoprofen Sodium],1.21
3,C=C1c2cccc(O)c2C(=O)C2=C(O)C3(O)C(=O)C(C(N)=O)=C(O)C(N(C)C)C3C(O)C12.Cl (centres undefined) [Methacycline HCl],1.19
4,CC1CCC2(C(=O)OC3OC(COC4OC(CO)C(OC5OC(C)C(O)C(O)C5O)C(O)C4O)C(O)C(O)C3O)CCC3(C)C(=CCC4C5(C)CC(O)C(O)C(C)(CO)C5CCC43C)C2C1C (centres undefined) [Asiaticoside],0.934
5,Nc1nc(F)nc2c1ncn2C1OC(CO)C(O)C1O (centres undefined) [Fludarabine],0.83
6,O=NN(CCCl)C(=O)NC1CCCCC1 [Lomustine],0.776
7,O=CC(O)C(O)C(O)C(O)COC1OC(CO)C(O)C(O)C1O (centres undefined) [Melibiose],1.32
8,O.S=c1nc[nH]c2nc[nH]c12 [6-Mercaptopurine (6-MP) Monohydrate],0.9
9,CC(C(=O)O)c1cccc(C(=O)c2ccccc2)c1 (centres undefined) [Ketoprofen],0.875
10,CNC1CCC(c2ccc(Cl)c(Cl)c2)c2ccccc21.Cl (centres undefined) [Sertraline HCl],0.905
11,CC1(C)OC2CC3C4CCC5=CC(=O)CCC5(C)C4(F)C(O)CC3(C)C2(C(=O)CCl)O1 (centres undefined) [Halcinonide],0.0693
12,CC(=O)OC12COC1CC(O)C1(C)C(=O)C(O)C3=C(C)C(OC(=O)C(O)C(NC(=O)OC(C)(C)C)c4ccccc4)CC(O)(C(OC(=O)c4ccccc4)C21)C3(C)C (centres undefined) [Docetaxel],0.761
13,CCN(CC)Cc1cc(Nc2ccnc3cc(Cl)ccc23)ccc1O.Cl.Cl [Amodiaquine hydrochloride],1.06
14,Cc1c(N)c(=O)n(-c2ccccc2)n1C [4-Aminoantipyrine],0.728
15,Cn1cnc2c(F)c(Nc3ccc(Br)cc3F)c(C(=O)NOCCO)cc21,0.548
16,CC1(C)C2CCC1(C)C(O)C2 (centres undefined) [Borneol],1.1
17,CC1CC2C3CCC4=CC(=O)C=CC4(C)C3(Cl)C(O)CC2(C)C1(OC(=O)c1ccco1)C(=O)CCl (centres undefined) [Mometasone furoate],0.0361
18,CCN(CC)CCCC(C)Nc1ccnc2cc(Cl)ccc12.O=P(O)(O)O.O=P(O)(O)O (centres undefined) [Chloroquine Phosphate],1.09
19,"COc1cc2c(cc1Cc1cccc(Cl)c1F)c(=O)c(C(=O)O)cn2C(CO)C(C)C (centres undefined) [Elvitegravir (GS-9137, JTK-303)]",1.09
20,O=c1[nH]c(=O)n(C2CC(O)C(CO)O2)cc1F (centres undefined) [Floxuridine],0.638
21,"CC1(C)CCC(CN2CCN(c3ccc(C(=O)NS(=O)(=O)c4ccc(NCC5CCOCC5)c([N+](=O)[O-])c4)c(Oc4cnc5[nH]ccc5c4)c3)CC2)=C(c2ccc(Cl)cc2)C1 [Venetoclax (ABT-199, GDC-0199)]",0.673
22,Cc1ccc(NC(=O)c2ccc(CN3CCN(C)CC3)cc2)cc1Nc1nc(-c2cccnc2)cs1 [Masitinib (AB1010)],0.93
23,CCc1cc(/C(C)=N/OCc2ccc(C3CCCCC3)c(C(F)(F)F)c2)ccc1CN1CC(C(=O)O)C1 [BAF312 (Siponimod)],1
24,CN(C)C(=O)COC(=O)Cc1ccc(OC(=O)c2ccc(NC(=N)N)cc2)cc1.CS(=O)(=O)O [Camostat Mesilate],0.792
25,Nc1nc(=S)c2[nH]cnc2[nH]1 [Thioguanine],0.736
26,OCC1OC(Oc2cc(O)cc(/C=C/c3ccc(O)cc3)c2)C(O)C(O)C1O (centres undefined) [Polydatin],1.35
27,COc1cc(N2CCC(N3CCN(C)CC3)CC2)ccc1Nc1ncc(Cl)c(Nc2ccccc2P(C)(C)=O)n1,0.986
28,Cc1cccn2c(=O)c(-c3nnn[n-]3)cnc12.[K+] [Pemirolast potassium],1.08
29,Cc1cccc(N(C)C(=S)Oc2ccc3ccccc3c2)c1 [Tolnaftate],0.81

# Same assay, conditions: 1 µM; irradiation: none
row,SMILES,ISRE reporter
1,C=CC(=O)Nc1cc(Nc2nccc(-c3cn(C)c4ccccc34)n2)c(OC)cc1N(C)CCN(C)C [Osimertinib (AZD9291)],1.12
2,CC1CC2C3CCC4=CC(=O)C=CC4(C)C3(F)C(O)CC2(C)C1(O)C(=O)COP(=O)([O-])[O-].[Na+].[Na+] (centres undefined) [Dexamethasone Sodium Phosphate],0.223
3,O=C(O)CCCN1CCC(OC(c2ccc(Cl)cc2)c2ccccn2)CC1.O=S(=O)(O)c1ccccc1 (centres undefined) [Bepotastine Besilate],1.36
4,CC(=O)OC(C)C(C)C(=O)OCC12C3CC4(C)C(=CCC5C6(C)CCC(OC7OC(C(=O)[O][Na])C(OC8OC(CO)C(O)C(O)C8O)C(O)C7OC7OCC(O)C(O)C7O)C(C)(CO)C6CCC54C)C1CC(C)(C)C(O3)C2O (centres undefined) [Sodium Aescinate],0.913
5,Nc1nc(CC(=O)Nc2ccc(CCNCC(O)c3ccccc3)cc2)cs1 (centres undefined) [Mirabegron],1.02
6,O=C1OC(OC(=O)c2cccnc2Nc2cccc(C(F)(F)F)c2)c2ccccc21 (centres undefined) [Talniflumate],0.514
7,CN1C(C(=O)Nc2ccccn2)=C(O)c2sccc2S1(=O)=O [Tenoxicam],0.997
8,CCC(=O)NS(=O)(=O)c1ccc(-c2c(-c3ccccc3)noc2C)cc1 [Parecoxib],0.916
9,CNCC(O)C(O)C(O)C(O)CO.Cc1c(Nc2ncccc2C(=O)O)cccc1C(F)(F)F [Flunixin Meglumin],0.919
10,Cc1cncc(CN2CCC(=C3c4ccc(Cl)cc4CCc4cccnc43)CC2)c1.O=C(O)/C=C/C(=O)O [Rupatadine Fumarate],0.939
11,COC(=O)CC(O)(CCCC(C)(C)O)C(=O)OC1C(OC)=CC23CCCN2CCc2cc4c(cc2C13)OCO4 (centres undefined) [Homoharringtonine],0.161
12,CC(C(=O)[O-])c1ccc(CC2CCCC2=O)cc1.[Na+] (centres undefined) [Loxoprofen Sodium],0.769
13,C=C1c2cccc(O)c2C(=O)C2=C(O)C3(O)C(=O)C(C(N)=O)=C(O)C(N(C)C)C3C(O)C12.Cl (centres undefined) [Methacycline HCl],1.42
14,CC1CCC2(C(=O)OC3OC(COC4OC(CO)C(OC5OC(C)C(O)C(O)C5O)C(O)C4O)C(O)C(O)C3O)CCC3(C)C(=CCC4C5(C)CC(O)C(O)C(C)(CO)C5CCC43C)C2C1C (centres undefined) [Asiaticoside],1.01
15,Nc1nc(F)nc2c1ncn2C1OC(CO)C(O)C1O (centres undefined) [Fludarabine],1.01
16,O=NN(CCCl)C(=O)NC1CCCCC1 [Lomustine],0.825
17,O=CC(O)C(O)C(O)C(O)COC1OC(CO)C(O)C(O)C1O (centres undefined) [Melibiose],1.1
18,O.S=c1nc[nH]c2nc[nH]c12 [6-Mercaptopurine (6-MP) Monohydrate],0.824

row,SMILES,ISRE reporter
1,CC(C(=O)O)c1cccc(C(=O)c2ccccc2)c1 (centres undefined) [Ketoprofen],0.772
2,CNC1CCC(c2ccc(Cl)c(Cl)c2)c2ccccc21.Cl (centres undefined) [Sertraline HCl],0.932
3,CC1(C)OC2CC3C4CCC5=CC(=O)CCC5(C)C4(F)C(O)CC3(C)C2(C(=O)CCl)O1 (centres undefined) [Halcinonide],0.232
4,CC(=O)OC12COC1CC(O)C1(C)C(=O)C(O)C3=C(C)C(OC(=O)C(O)C(NC(=O)OC(C)(C)C)c4ccccc4)CC(O)(C(OC(=O)c4ccccc4)C21)C3(C)C (centres undefined) [Docetaxel],6.07
5,CCN(CC)Cc1cc(Nc2ccnc3cc(Cl)ccc23)ccc1O.Cl.Cl [Amodiaquine hydrochloride],1.13
6,Cc1c(N)c(=O)n(-c2ccccc2)n1C [4-Aminoantipyrine],0.672
7,Cn1cnc2c(F)c(Nc3ccc(Br)cc3F)c(C(=O)NOCCO)cc21,0.762
8,CC1(C)C2CCC1(C)C(O)C2 (centres undefined) [Borneol],1.09
9,CC1CC2C3CCC4=CC(=O)C=CC4(C)C3(Cl)C(O)CC2(C)C1(OC(=O)c1ccco1)C(=O)CCl (centres undefined) [Mometasone furoate],0.163
10,CCN(CC)CCCC(C)Nc1ccnc2cc(Cl)ccc12.O=P(O)(O)O.O=P(O)(O)O (centres undefined) [Chloroquine Phosphate],0.913
11,"COc1cc2c(cc1Cc1cccc(Cl)c1F)c(=O)c(C(=O)O)cn2C(CO)C(C)C (centres undefined) [Elvitegravir (GS-9137, JTK-303)]",1.02
12,O=c1[nH]c(=O)n(C2CC(O)C(CO)O2)cc1F (centres undefined) [Floxuridine],1.88
13,"CC1(C)CCC(CN2CCN(c3ccc(C(=O)NS(=O)(=O)c4ccc(NCC5CCOCC5)c([N+](=O)[O-])c4)c(Oc4cnc5[nH]ccc5c4)c3)CC2)=C(c2ccc(Cl)cc2)C1 [Venetoclax (ABT-199, GDC-0199)]",0.63
14,Cc1ccc(NC(=O)c2ccc(CN3CCN(C)CC3)cc2)cc1Nc1nc(-c2cccnc2)cs1 [Masitinib (AB1010)],0.877
15,CCc1cc(/C(C)=N/OCc2ccc(C3CCCCC3)c(C(F)(F)F)c2)ccc1CN1CC(C(=O)O)C1 [BAF312 (Siponimod)],0.71
16,CN(C)C(=O)COC(=O)Cc1ccc(OC(=O)c2ccc(NC(=N)N)cc2)cc1.CS(=O)(=O)O [Camostat Mesilate],0.871
17,Nc1nc(=S)c2[nH]cnc2[nH]1 [Thioguanine],0.868
